Test results taken from PubChem BioAssay AID485297 (National Center for Advancing Translational Sciences (NCATS), 2010).
The campaign covered roughly 320,000 compounds. About 9,100 (2.8%) were called active. The shares of active, inactive and inconclusive entries below differ from those in the screen. Calls follow the shape of the dose curve; as a rule, active = well fitted activation curve with a large enough effect; inconclusive = small, poorly fitted or top-dose-only effect; inactive = no such curve, though single readings can be large or run the other way. Potencies of inconclusive entries are left out as doubtful fits.

Assay: qHTS Assay for Rab9 Promoter Activators; also: nearly all actives have a fitted effect of over 60% in size
Conditions: Huh7 Rab9 promoter-luciferase reporter, luminescence, 24 h; series mostly up to 9.22 µM
Method in brief: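 Cells were plated at 1500 per well in reduced-serum medium with 10% FBS and left 2 h. Compound in DMSO was then added for 24 h at 37 °C. Reporter signal was read by luminescence after 10 min with luciferase detection reagent.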
Potency is read from the fitted curve at half-maximal effect; tags tell the direction and shape of the fitted curve.

SMILES	Potency
CN(CC(=O)Nc1cccc(F)c1)C(=O)CCc1nc2ccccc2c(=O)[nH]1	inactive
Cc1ccc2cc(/C=N/Nc3nc4ccccc4[nH]3)c(Cl)nc2c1	active: 0.631 µM
COc1cc(-c2cc(=O)c3ccccc3o2)ccc1O	inconclusive [activator, single point]
Cc1ccc(NC(=O)c2ccc([N+](=O)[O-])o2)cc1C	inconclusive [activator, single point]
O=C(c1nc2ccccc2[nH]1)c1ccccc1[N+](=O)[O-]	inconclusive [activator, partial curve]
CN(C)c1ccc(C(=O)OCc2ccccc2)cc1	inactive
COc1cccc2sc(Nc3nc(C)c(C(C)=O)s3)nc12	inconclusive [activator, partial curve]
O=C1S/C(=C\C=C\c2ccco2)C(=O)N1c1ccc(O)cc1	inconclusive [activator, single point]
Cc1ccc(N2CCN(C(=S)Nc3ccccc3C)CC2)cc1	inactive
Cc1ccc(NC(=O)c2nsc(Cl)c2Cl)cc1	active: 2.82 µM
N#C/C(=N\Nc1ccc(Cl)c(Cl)c1)C(=O)C1CC1	inconclusive [activator, single point]
Cc1cc(C(=O)NC2CCCCC2)c(C)n1-c1ccc(F)cc1	active: 2.51 µM
Cn1c(N)c(C(=O)COC(=O)Cc2ccsc2)c(=O)n(C)c1=O	inconclusive [activator, single point]
CCc1ccc2nc(/N=C(\N)NC(=O)c3ccccc3)nc(C)c2c1	inconclusive [activator, single point]
CCN=C1S/C(=C\c2sccc2C)C(=O)N1CC	inconclusive [activator, single point]
Cc1ccc2oc(Nc3nc(C)cc(C)n3)nc2c1	active: 3.16 µM
COc1ccc2oc(C(=O)NCc3ccco3)c(C)c2c1	inconclusive [activator, single point]
Cc1cc(C(=O)CSc2nc3ccccc3[nH]2)c(C)n1CC1CCCO1 (stereo not drawn)	inconclusive [activator, full curve]
N/C(=N\OC(=O)c1ccc(Cl)c(Cl)c1)c1cccc(CSc2ccccn2)c1	inconclusive [activator, partial curve]
S=C(c1cn(Cc2ccccc2)c2ccccc12)N1CCOCC1	inconclusive [activator, single point]
COC(=O)Nc1ccc(OCc2ccccc2)cc1	active: 2.82 µM
CCCCC(=O)Nc1ccccc1C(=O)OCC(=O)c1ccc2c(c1)OCCO2	inconclusive [activator, partial curve]
Cc1ccc(NC(=O)Nc2ccc(F)cc2)cc1Cl	inconclusive [activator, partial curve]
CC(=O)Nc1cccc(/C(C)=N/Nc2nc3ccccc3s2)c1	inconclusive [activator, single point]

SMILES	Potency
Cc1c2cnn(CC(=O)NCCCN3CCCCC3C)c(=O)c2c(C)n1Cc1ccccc1 (stereo not drawn)	inactive
Cc1sc2c(c1C)C(=O)NC(c1ccccc1F)N2 (stereo not drawn)	inconclusive [activator, single point]
Cc1ccc(S(=O)(=O)N2CCOCC2)cc1NC(=O)COC(=O)CNC(=O)c1ccc(C(C)(C)C)cc1	inactive
CCOC(=O)c1cnc2c(ccc3ccccc32)c1Cl	inactive
Cc1ccccc1NC(=O)c1c(O)c2cccc3c2n(c1=O)CC3	inconclusive [activator, single point]
CC(C)c1ccc(N=C2N=C(N)c3ccccc32)cc1	inconclusive [activator, single point]
Clc1ccc(OCc2nc(-c3ccncc3)no2)cc1	inconclusive [activator, single point]
CCOc1ccc(-c2cc(C(=O)OC)[nH]n2)cc1	active: 2.24 µM
Cc1cccnc1NC(=O)c1cccc(S(=O)(=O)NCc2ccccc2)c1	inactive
O=C(OCc1nc2ccccc2s1)C1CCN(C2=NS(=O)(=O)c3ccccc32)CC1	inconclusive [activator, single point]
Cc1nnc(-c2ccccc2)[nH]c1=O	inactive
COc1ccc(NC(=O)CSc2nccn2Cc2ccco2)cc1OC	inconclusive [activator, single point]
O=C(Nc1ccccn1)c1ccc(Cl)c(S(=O)(=O)N2CCCC2)c1	inconclusive [activator, single point]
Cc1ccccc1OCC(=O)O/N=C(\N)c1ccncc1	inconclusive [activator, partial curve]
CC(=O)C(C)Oc1ccc2c3c(c(=O)oc2c1)CCCC3 (stereo not drawn)	inactive
CC(=O)c1cccc(NC(=O)CSCc2ccccc2)c1	inconclusive [activator, partial curve]
O=C1c2ccccc2C(=O)c2c(Nc3ccc(CCO)cc3)ccc(O)c21	inconclusive [activator, partial curve]
CCOC(=O)c1ccc(NC(=O)c2nn(CC)cc2Br)cc1	inconclusive [activator, partial curve]
Cc1ccc(N=Nc2c(N)n(-c3ccccc3)[nH]c2=O)cc1	inconclusive [activator, single point]
OC[C@H]1OC(Nc2ccc(N=Nc3ccccc3)cc2)[C@@H](O)[C@@H](O)[C@@H]1O (stereo partly drawn)	inconclusive [activator, single point]
c1cncc(CNc2cccc(-c3nc4ccccc4[nH]3)c2)c1	active: 2.51 µM
O=C(Cc1ccccc1)Nc1ccc(NC(=O)c2ccco2)nc1	active: 2.51 µM
COc1ccc(OCc2cc(C(=O)N(C)CCC3CCOCC3)no2)c(Cl)c1	inconclusive [activator, partial curve]
CN(C)c1nc2c(c(=O)[nH]c(=O)n2C)n1Cc1ccc(F)cc1	inactive
